# Some of the results follow. The main result of the screen is listed elsewhere. These columns were measured beside it and carry no call. The list favours compounds with an active or inconclusive main result.
# Target: Runt-related transcription factor 1 (Homo sapiens) + Core-binding factor subunit beta (Homo sapiens) (UniProt Q01196+Q13951)
# Assay: disruptors of Runt domain/CBFb-SMMHC interaction – biochemical, FRET, Cerulean-Runt, Venus-CBFb-SMMHC, uHTS, primary screen (AID 1434);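 further: 0% = DMSO wells and 100% = wells with excess untagged CBFb-SMMHC; inhibitors lower the FRET ratio by blocking Runt binding to CBFb-SMMHC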
# Conditions: Cerulean-Runt/Venus-CBFb-SMMHC FRET ratio 530/480, 1 h; retest duplicate average; at 20 µM; stronger effect = higher value
# UniProt Q01196, sequence (Q01196 whole entry, looked up, the tested form may be a part): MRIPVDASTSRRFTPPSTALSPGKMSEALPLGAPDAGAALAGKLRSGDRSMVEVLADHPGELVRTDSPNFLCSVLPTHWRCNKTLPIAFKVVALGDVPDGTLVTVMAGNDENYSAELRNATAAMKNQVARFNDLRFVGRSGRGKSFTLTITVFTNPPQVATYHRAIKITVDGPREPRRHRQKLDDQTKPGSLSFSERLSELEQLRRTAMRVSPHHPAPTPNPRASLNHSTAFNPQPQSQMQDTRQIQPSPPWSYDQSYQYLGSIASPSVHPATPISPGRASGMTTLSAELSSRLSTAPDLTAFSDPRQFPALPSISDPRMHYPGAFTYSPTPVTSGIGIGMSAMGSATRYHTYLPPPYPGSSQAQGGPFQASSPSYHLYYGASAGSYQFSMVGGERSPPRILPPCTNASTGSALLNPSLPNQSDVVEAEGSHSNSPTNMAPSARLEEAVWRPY
# UniProt Q01196, sequence (Q13951 whole entry, looked up, the tested form may be a part): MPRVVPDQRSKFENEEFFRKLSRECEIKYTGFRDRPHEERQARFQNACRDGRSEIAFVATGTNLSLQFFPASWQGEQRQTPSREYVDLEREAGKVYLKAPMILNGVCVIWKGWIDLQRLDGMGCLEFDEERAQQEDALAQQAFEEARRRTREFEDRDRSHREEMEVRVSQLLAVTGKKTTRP
row,Structure (SMILES),inhibition
1,Cc1ncc(CO)c(/C=N/NC(=O)c2ccccc2Br)c1O,71.5%
2,Cc1nnc(SCc2cc(=O)oc3cc(O)ccc23)n1Cc1ccccc1,126%
3,O=CN/C=C/c1cc(O)ccc1O,55.8%
4,Cc1cccc2cc(C#N)c(NCCNC(=S)NCCCN3CCOCC3)nc12,74.6%
5,OCCCc1nc2n(n1)C(c1ccccc1Cl)C=C(c1cccs1)N2 (stereo not drawn),71.5%
6,CCN(CC)c1ccc2cc(NC(=O)CCC(=O)O)c(=O)oc2c1,71.5%
7,COC(=O)c1ccc(C(=O)OC)c(NC(=S)N2CCCCC2C)c1 (stereo not drawn),82.1%
8,Cc1ccc(C)c2nc(N3CCCC3)c(C#N)cc12,101%
9,CN(/N=C/c1cc(Cl)cc(Cl)c1O)C(=S)NC(C)(C)C,70.6%
10,COc1cccc(CN2C(=O)c3cccc(N)c3C2=O)c1,71.5%
11,CC1=CC2=NC(=O)/C(=C\c3cn(C)c4ccccc34)C(=N)N2O1,70.6%
12,N#CC(C#N)=C1C=C2C=C(N3CCCCC3)CCC2CC1 (stereo not drawn),71.5%
13,COc1cccc(/C(O)=C2/C(=O)C(=O)N(c3cc(C)on3)C2c2cccs2)c1 (stereo not drawn),119%
14,COc1cc(OC)c2c(=O)c(OC)c(-c3ccc(OC)c(OC)c3)oc2c1,52.3%
15,CC(=O)Nc1c(S(=O)(=O)c2ccccc2)c2nc3ccccc3nc2n1Cc1ccccc1,72.1%
16,N#CC1=C(N)N2C(=C(C#N)C1c1cccc(Br)c1)Nc1ccccc12 (stereo not drawn),71.5%
17,COC(=O)c1cc(=O)n2c(sc3ccccc32)c1C#N,127%
18,CCc1cc2c3c(c(=O)oc2cc1O)CCCC3,169%
19,O=C1CCNc2cc3ccccc3cc21,91.1%
20,Cc1nc2[nH]c(=O)c3c(n2n1)NC1=C(C(=O)CC(C)(C)C1)C3c1ccccc1 (stereo not drawn),150%
21,Cc1cc(C)cc(Oc2nc3c(C)cccn3c(=O)c2/C=C(\C#N)C(=O)NC2CCS(=O)(=O)C2)c1 (stereo not drawn),71.5%
22,O=[N+]([O-])c1ccc(N=Cc2sc3ccccc3c2O)cc1,79.4%
23,COc1cc(N2C(=O)C=CC2=O)c(OC)cc1Cl,67%

row,Structure (SMILES),inhibition
1,Cc1cc(=O)oc2c(CN(CC(C)C)CC(C)C)c(O)ccc12,92.5%
2,CC(=O)c1c(N2CCN(Cc3ccccc3)CC2)nc(=S)n(Cc2ccccc2)c1C,118%
3,CN1CCc2c(sc3c2C(=O)NC(c2ccccc2)N3)C1 (stereo not drawn),71.5%
4,CCOC(=O)C1=C(O)/C(=C/c2cn(CC(=O)N3CCCC3)c3ccccc23)SC1=Nc1ccccc1,70.9%
5,O=C(NCc1ccccn1)c1cc2c(ccc3ccccc32)oc1=O,161%
6,Oc1c(C=Nc2cccnc2)sc2ccccc12,66.5%
7,Cc1cc(C)cc(N=Cc2c(O)c3ccccc3oc2=O)c1,70.6%
8,CN1/C(=C\C(=O)c2cccnc2)Sc2ccccc21,59.1%
9,COCCCn1c(=NC(=O)c2ccncc2)c(C#N)cc2c(=O)n3cccc(C)c3nc21,72.9%
10,COc1c2ccoc2c(OC[C@@H](O)C(C)(C)OC)c2oc(=O)ccc12,75.1%
11,CCN(CC)CCCC(C)Nc1c2ccc(Cl)cc2nc2ccc(OC)cc12 (stereo not drawn),70.6%
12,CCOC(=O)C1=C(C)N=C2SC=C(C)N2C1c1ccc(OC)cc1 (stereo not drawn),68.1%
13,O=c1c2ccccc2[nH]c2ccc(F)cc12,70.6%
14,Cc1cc(-c2nc3cccnc3s2)ccc1NS(=O)(=O)c1ccc2c(c1)OCCO2,171%
15,N#CC1=C(N)Oc2cc(O)ccc2C1c1ccccc1 (stereo not drawn),85.2%
16,CCN(CC)c1ccc2cc(C#N)c(=O)oc2c1,112%
17,CCN(CC)c1ccc2cc(C(=O)NNC(=O)c3ccc(S(=O)(=O)N4CCCCC4)cc3)c(=O)oc2c1,108%
18,Cc1csc2c(=O)sc(NC(=O)c3cccs3)nc12,104%
19,CCOc1ccc(/C=C(\C(=O)O)c2ccc(S(=O)(=O)N3CCOCC3)s2)cc1OC,58.6%
20,CSc1nc(=S)c2[nH]c(=S)[nH]c2[nH]1,52.2%
21,C/C(=N/NC(=O)c1ccncc1)c1cc2ccc(O)cc2oc1=O,71.5%
22,COc1ccc(OC)c(N=c2oc3cc(O)ccc3cc2C(N)=O)c1,129%
23,CN1/C(=C\C=C(/C#N)C(=O)Nc2ccccc2F)C(C)(C)c2ccccc21,63.2%

row,Structure (SMILES),inhibition
1,CCCOc1ccccc1C1C(C(=O)OC)=CN(C(C)C)C=C1C(=O)OC,72.9%
2,CN1CCc2nc(NC(=O)COc3ccc(C#N)cc3)sc2C1,92.5%
3,COc1cc(/C=C(\C#N)c2nc3ccccc3[nH]2)cc(Br)c1OCc1ccc(F)cc1,117%
4,CCOCCCNC(=S)NCCNc1nc2ccc(C)cc2cc1C#N,115%
5,CCOC(=O)C1=C(C)NC2=C(C(=O)C(C(=O)OCC)C(c3ccccc3OC)C2)C1c1ccccn1 (stereo not drawn),71.8%
6,CN1C(=O)N(C)c2ccc(C=O)c3cccc1c23,70.6%
7,Fc1ccccc1-c1ccc(/C=N/Nc2nc3ccccc3[nH]2)o1,63.1%
8,Nc1c(C(=O)OCC2CCCO2)c2nc3ccccc3nc2n1C1CCCCC1 (stereo not drawn),73.3%
9,N#CC1(C#N)COC23CCCCC2C1(C#N)C(=N)O3 (stereo not drawn),126%
10,c1ccc(N2N=C(c3cccs3)CC2c2ccco2)cc1 (stereo not drawn),60.3%
11,CCCn1nc(NC(=O)c2cccs2)c2cc3ccc(C)cc3nc21,50.6%
12,COc1ccc(C2C(C#N)=C(N)N(Nc3ccccc3)C3=C2C(=O)CC(C)(C)C3)cc1C (stereo not drawn),120%
13,CCN(CC)Cc1c(O)c(Cl)cc2c(C)cc(=O)oc12,156%
14,Nc1c(C(=O)NCc2ccc3c(c2)OCO3)c2nc3ccccc3nc2n1CCCN1CCOCC1,73.6%
15,CCCn1nc(NC(=O)c2ccccn2)c2cc3cc(C)ccc3nc21,80.9%
16,COCCn1c(C)cc(C(=O)CSc2nc(C)cc(C)c2C#N)c1C,96.4%
17,Cc1ccc2cc(C#N)c(N3CCCC3)nc2c1C,67.3%
18,COc1ccc(C2CC(=O)N3CN(c4ccccc4F)CSC3=C2C#N)cc1OC (stereo not drawn),112%
19,CCCNC(=O)Cn1sc2nc(C)cc(C)c2c1=O,52.2%
20,Nc1n[nH]c2cc(=O)n(-c3cccc(C(F)(F)F)c3)nc12,100%
21,Cc1ccc2cc(C#N)c(NCCNC(=O)C3CCC3)nc2c1C,105%
22,COCCOC(=O)c1cc(C(=O)c2cc(F)ccc2O)coc1=N,108%
23,O=c1oc2c(CN3CCOCC3)c(O)c(Cl)cc2c2c1CCC2,174%

row,Structure (SMILES),inhibition
1,N#C/C(=C\c1c(N2CCC(C(N)=O)CC2)nc2ccccn2c1=O)C(=O)NCc1ccco1,166%
2,CC(C)Cn1c(-c2cccs2)nc2nc3ccccc3nc21,129%
3,CCNc1nc(C)c(CN(C(C)=O)c2ccccc2)nc1C#N,84.5%
4,Cc1cc(NCc2ccco2)nc2cc(O)ccc12,84.9%
5,O=C(O)c1cc2ccc3ccccc3c2oc1=O,74.3%
6,Cc1cc(O)c(Oc2cc(C)cc(O)c2O)c(O)c1,60.2%
7,Cc1ccc2c(n1)sc1c(-c3ccccc3)c(C#N)c(N)nc12,127%
8,COC(=O)C1=CN(C(C)C)C=C(C(=O)OC)C1c1cc2c(cc1Br)OCO2,110%
9,CCn1c(/C=C/c2c(C)[nH]c3ccccc23)nc2ccccc2c1=O,71.5%
10,Nc1c(Cl)ncnc1N/N=C/c1ccccn1,71.5%
11,Cc1cc2c(c(=O)n1C)C(Cc1ccccc1)C(C#N)=C(N)O2 (stereo not drawn),177%
12,CNC(=O)c1cc2c(=O)n3cccc(C)c3nc2n(C(C)C)c1=N,72.9%
13,C=CCn1c(=O)c(C#N)cc2c(=O)n3ccccc3nc21,72.9%
14,Cc1cccn2c(=O)c3cc(C#N)c(=NC(=O)c4cccs4)n(CC(C)C)c3nc12,70.6%
15,CN1c2ccc(Cl)cc2C(=O)NC1C1CC=CCC1 (stereo not drawn),101%
16,O=C(O)COc1ccc2c(c1)O/C(=C\c1cccs1)C2=O,53.9%
17,Cc1cccc2cc(C#N)c(NCCNS(=O)(=O)c3ccccc3)nc12,90.1%
18,COc1ccc2nc3cc(Cl)ccc3c(Nc3cc(C(C)C)c(O)cc3C)c2c1,76.9%
19,O=C1Nc2ccccc2C12Nc1ccccc1S2 (stereo not drawn),54.4%
20,CCOC(=O)c1c(/N=C/c2ccc(O)cc2O)sc2c1CCC2,54.9%
21,CSc1ccc(C2NC(=O)c3c(sc4c3CCN(C)C4)N2)cc1 (stereo not drawn),152%
22,CCNc1nc2nc3ccc(C)cn3c(=O)c2cc1C(=O)NCC1CCCO1 (stereo not drawn),70.6%
23,CCCCc1cc(=O)oc2cc(O)ccc12,104%

row,Structure (SMILES),inhibition
1,Oc1ccc(-c2cnns2)c(O)c1,57.5%
2,Cc1ccc2nc3c(cc2c1)c(NC(=O)c1ccco1)nn3CC(C)C,80%
3,N#Cc1c(NCCN)nc(NCc2ccccc2)c2c1CCN(Cc1ccccc1)C2,72.9%
4,CC(=O)c1ccc(-c2cccs2)s1,173%
5,COc1ccc2cc(C(=O)NCc3ccco3)c(=O)oc2c1,84.2%
6,C=CCNC(=O)/C(C#N)=C/c1c(N2CC(C)OC(C)C2)nc2ccccn2c1=O (stereo not drawn),71.5%
7,CCNC(=O)c1cc2c(=O)n3cccc(C)c3nc2n(CCc2ccccc2)c1=N,71.5%
8,Cn1c(=O)nc2n(Cc3ccccc3)c3ccccc3cc-2c1=O,71.5%
9,CCOc1ccc2nc(NCCCNS(=O)(=O)c3ccc(C)cc3)c(C#N)cc2c1,63.1%
10,COCCCn1c(=N)c(C(=O)NC2CCCCC2)cc2c(=O)n3ccccc3nc21,71.5%
11,C=CCn1c(NC(=O)c2ccccc2Cl)c(C#N)c2nc3ccccc3nc21,72.7%
12,Cc1cc(O)ccc1Nc1nc2ccccc2nc1Nc1ccc(O)cc1C,59.4%
13,CCCCNC(=O)C(C#N)c1nc2ccccc2nc1N1CCCC1 (stereo not drawn),85.4%
14,N#Cc1c(-c2cccnc2)c2c([nH]c1=O)-c1ccccc1OC2,70.6%
15,CCOC(=O)c1cc(C)[nH]c(=O)c1C#N,58.6%
16,CCCCc1cc(=O)oc2c(CN(C)C)c(O)ccc12,115%
17,COc1ccc(C2CC(c3cccs3)=NN2c2ccc(C=O)cc2)cc1 (stereo not drawn),71.5%
18,CCOC(=O)c1c(NC(=S)Nc2ccc(OCC)cc2)sc2c1CCN(C)C2,147%
19,Cc1cc(C)cc(-n2c3nc4ccccc4nc3c3c(=O)n(Cc4ccco4)cnc32)c1,47.1%
20,COCCCNC(=O)c1c(N)n(-c2cccc(S(N)(=O)=O)c2)c2nc3ccccc3nc12,71.5%
21,O=C(Nc1ccc(-c2nc3ccccc3s2)c(O)c1)C1=COCCO1,73.2%
